Source: PubChem BioAssay AID2147 (National Center for Advancing Translational Sciences (NCATS), 2009)
Among all 230,000 compounds or so, about 3,600 (1.6%) were called active. Inconclusive means that the source gave no clear call. Such entries were picked first, then a sample of the others. Calls follow the shape of the dose curve; as a rule, active = well fitted inhibition curve with a large enough effect (not every such curve was filed as active); inconclusive = small, poorly fitted or top-dose-only effect, or another doubt; inactive = no such curve, though single readings can be large or run the other way. A potency beside an inconclusive call is a rough fit, not a confirmed value.

Target: Lysine-specific demethylase 4E (Homo sapiens) (UniProt B2RXH2)
Sequence of UniProt B2RXH2 (B2RXH2 whole entry, looked up, the tested form may be a part): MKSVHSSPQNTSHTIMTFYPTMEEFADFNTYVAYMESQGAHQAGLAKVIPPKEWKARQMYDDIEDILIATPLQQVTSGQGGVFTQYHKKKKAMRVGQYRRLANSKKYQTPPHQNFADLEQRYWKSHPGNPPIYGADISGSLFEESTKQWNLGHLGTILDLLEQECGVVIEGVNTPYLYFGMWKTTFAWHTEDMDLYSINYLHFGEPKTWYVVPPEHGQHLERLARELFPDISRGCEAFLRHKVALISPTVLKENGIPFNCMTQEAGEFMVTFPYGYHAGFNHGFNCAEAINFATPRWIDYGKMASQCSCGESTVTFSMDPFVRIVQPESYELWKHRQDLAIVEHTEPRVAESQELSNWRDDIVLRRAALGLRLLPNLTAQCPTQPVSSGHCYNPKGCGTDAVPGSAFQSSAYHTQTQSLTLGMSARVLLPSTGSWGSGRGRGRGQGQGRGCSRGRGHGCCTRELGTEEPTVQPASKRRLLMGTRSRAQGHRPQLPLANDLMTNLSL
Assay: qHTS Assay for Inhibitors of Human Jumonji Domain Containing 2E (JMJD2E)
Conditions: JMJD2E catalytic domain, FDH-coupled NADH fluorescence (FDH is formaldehyde dehydrogenase); series mostly up to 57.1 µM; activity change, negative = inhibition: at the top concentration
Also: nearly all actives have a fitted effect of over 50% in size.
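For activity change, negative = inhibition in this document: 0% = wells with enzyme and -100% = buffer wells without enzyme.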
Potency is read from the fitted curve at half-maximal effect; tags tell the direction and shape of the fitted curve.

Compound | activity change, negative = inhibition | Potency
O=C(CC(Nc1ccc(F)cc1)C(=O)OCC(=O)c1cccs1)c1ccccc1 (stereo not given) | inactive: -5.38% | 
O=C(COc1cccnc1[N+](=O)[O-])NCCc1ccc(F)cc1 |  | inconclusive: 31.6 µM [inhibitor, single point]
O=C(NCCc1ccccn1)c1cc(-c2ccc(Cl)cc2)nc2ccccc12 |  | inconclusive: 25.1 µM [inhibitor, single point]
O=C(O)[C@H]1[C@H]2C[C@H]3c4[nH]c5ccccc5c4CCN3C[C@@H]2CC[C@@H]1O |  | inconclusive: 31.6 µM [inhibitor, partial curve]
COc1ccc2c(CN(C)c3ccccc3)cc(=O)oc2c1 |  | inconclusive: 28.2 µM [inhibitor, partial curve]
Cc1c(-c2ccccc2)cn2c1-c1ccc(C)n1CC2 |  | inconclusive: 35.5 µM [inhibitor, single point]
CCN(CC)c1cc(Cl)nc(N)n1 |  | inconclusive: 2.82 µM [inhibitor, partial curve]
COc1cccc(CNc2ccc(F)c(Cl)c2)c1O |  | inconclusive: 39.8 µM [inhibitor, single point]
CCN(C(=O)c1cc2cc3ccc(C)cc3nc2o1)c1ccc(OC)cc1 |  | inconclusive: 39.8 µM [inhibitor, single point]
Cc1ccccc1OCC(=O)N/N=C/c1cccc(Oc2ccc([N+](=O)[O-])cc2[N+](=O)[O-])c1 | inactive: 1.96% | 
O=C(O)CCC(=O)Nc1ccc(Oc2ncnc3cc(Cl)ccc23)nc1 |  | inconclusive: 39.8 µM [inhibitor, single point]
O=c1[nH]c2ccc(NC(=S)NCCc3ccccc3)cc2[nH]1 |  | inconclusive: 31.6 µM [inhibitor, single point]
Fc1ccc(-c2nc3nc4ccccc4nc3n2Cc2ccco2)cc1 |  | inconclusive: 31.6 µM [inhibitor, partial curve]
Cc1cc(=O)oc2cc(OCC(=O)NCc3ccccn3)ccc12 | inactive: -5.69% | 
CCOC(=O)C1(Cc2ccccc2)CCN(Cc2cc(=O)c3ccccc3[nH]2)CC1 |  | inconclusive: 39.8 µM [inhibitor, single point]
COc1ccccc1-c1nc(C#N)c(NCCCn2ccnc2)o1 |  | inconclusive: 31.6 µM [inhibitor, partial curve]
CC(C)(C)c1ccc(S(=O)(=O)N(CCCN2CCOCC2)Cc2cccs2)cc1 | inactive: -7.05% | 
Clc1ccc(CNc2ccccc2NCc2ccc(Cl)nc2)cn1 |  | inconclusive: 31.6 µM [inhibitor, partial curve]
CCc1c(C)sc(NC(=O)c2cccs2)c1C#N |  | inconclusive: 3.16 µM [inhibitor, partial curve]
COc1cccc(-c2nn(C)c3sc(C(=O)NCc4ccccn4)cc23)c1 |  | inconclusive: 28.2 µM [inhibitor, partial curve]
Cc1cc(C(=O)NCCC2=CCCCC2)ccc1[N+](=O)[O-] |  | inconclusive: 1 µM [inhibitor, full curve, poor fit]
CN(C)c1ccc(N=Cc2nc(-c3ccccc3)oc2OC(=O)c2ccccc2)cc1 | inactive: 5.85% | 
CCOC(=O)c1oc2ccccc2c1NC(=O)C(C)(C)C |  | inconclusive: 39.8 µM [inhibitor, single point]
CCOc1ccc2nc(SCCNS(=O)(=O)c3ccccc3)sc2c1 | inactive: 4.55% | 

Compound | activity change, negative = inhibition | Potency
CCC1CSC(Nc2ccc(C(=O)/C=C/c3ccc(OC)c(OC)c3)cc2)=N1 (stereo not given) |  | inconclusive: 1.41 µM [inhibitor, partial curve]
Cc1ccc(N)cc1S(=O)(=O)N(C)C | inactive: -1.02% | 
Cc1ccc(C)c2[nH]c(=O)c(CN(Cc3ccco3)S(=O)(=O)c3ccc4c(c3)OCCO4)cc12 |  | inconclusive: 28.2 µM [inhibitor, single point]
O=C(N/N=C/c1cc2ccccc2nc1Cl)/C(=C/c1cccs1)NC(=O)c1ccccc1 |  | inconclusive: 39.8 µM [inhibitor, single point]
COc1ccccc1N1C(=O)CSC1=NC(=O)c1ccccc1 | inactive: 5.56% | 
CC12CCC3C(CC3(C)C)C(C)(CCC1=O)O2 (stereo not given) | inactive: -4.73% | 
Cc1ccc(Cl)cc1N(CC(=O)Nc1cccc(N(C)S(C)(=O)=O)c1)S(C)(=O)=O | inactive: 9.76% | 
CCN(CC)S(=O)(=O)c1ccc(C(=O)OCC(=O)Nc2ccc(-c3nc4ccc(C)cc4s3)cc2)cc1 |  | inconclusive: 12.6 µM [inhibitor, partial curve]
COC(=O)c1nn(-c2ccc(F)cc2)ccc1=O |  | inconclusive: 22.4 µM [inhibitor, single point]
c1ccc(-c2ccccc2OCCN2CCOCC2)cc1 |  | inconclusive: 39.8 µM [inhibitor, single point]
NS(=O)(=O)c1ccc(CNC(=O)Cc2c(F)cccc2Cl)cc1 | inactive: 1.51% | 
Cc1ccc(Nc2ncnc3c2oc2ccccc23)cc1 |  | inconclusive: 39.8 µM [inhibitor, single point]
COc1cc([N+](=O)[O-])cc(/C=N/NC(=O)c2ccc(C)nc2)c1O |  | active: 14.1 µM
O=S(=O)(Nc1ccc(-c2nc3cccnc3s2)cc1)c1cc(F)ccc1F |  | inconclusive: 28.2 µM [inhibitor, partial curve]
Cc1nn(-c2ccccc2)nc1C(=O)Oc1cc(C(F)(F)F)nn1-c1ccccc1 |  | inconclusive: 39.8 µM [inhibitor, single point]
O=C(Nc1ccc(-c2nc3ccccc3s2)c(O)c1)C1=COCCO1 |  | inconclusive: 39.8 µM [inhibitor, single point]
COC(=O)c1cccc(C(=O)Oc2cccc(Br)c2)n1 | inactive: 5.1% | 
COC(=O)C1C2C=CC3(CN(Cc4cccs4)C(=O)C13)O2 (stereo not given) | inactive: 6.95% | 
CCCCCC(=O)Nc1c(-c2cccs2)c(=O)c2ccccc2n1C |  | inconclusive: 28.2 µM [inhibitor, single point]
CC(C)(OC1OC(CO)C(O)C(O)C1O)[C@H]1Oc2ccc3ccc(=O)oc3c2[C@H]1O (stereo not given in full) |  | inconclusive: 31.6 µM [inhibitor, partial curve]
COc1ccccc1N1CC=C(c2cccc([N+](=O)[O-])c2)NC1=O |  | inconclusive: 15.8 µM [inhibitor, partial curve]
Clc1cccc(Sc2ccc(-c3ccccn3)s2)c1 |  | inconclusive: 31.6 µM [inhibitor, single point]
O=C(Nc1cccc(O)c1)c1ccc(Br)cc1 | inactive: 3.46% | 
COC(=O)c1ccc(-c2ccc(OC)c([C@H]3[C@H]4C=CC[C@@H](C)[C@@H]4C(=O)N3Cc3ccccc3)c2)cc1 |  | inconclusive: 25.1 µM [inhibitor, partial curve]

Compound | activity change, negative = inhibition | Potency
N#C/C(C(=O)N1CCCCC1)=C1/N=C(N)c2ccccc21 |  | inconclusive: 7.08 µM [inhibitor, single point]
COc1ccc2[nH]c(=O)c(CN(CC3CCCO3)C(=S)Nc3cccc(C)c3)cc2c1 (stereo not given) |  | inconclusive: 14.1 µM [inhibitor, partial curve]
COC(=O)c1[nH]c2ccc(C)cc2c1NC(=O)CN1CCN(c2ccccc2)CC1 |  | inconclusive: 35.5 µM [inhibitor, partial curve]
Oc1cc2c(cc1O)[C@H]1c3ccc(O)c(O)c3OC[C@@]1(O)C2 |  | active: 3.55 µM
CCOC(=O)c1c(-c2ccc(C)o2)csc1NC(=S)NC(=O)c1cccs1 | inactive: -15.8% | 
CC(=O)Nc1ccc(S(=O)(=O)NCc2csc(-c3cccnc3)n2)cc1 |  | inconclusive: 28.2 µM [inhibitor, single point]
O=C(Nc1nnc(-c2ccc(Cl)cc2)o1)Nc1ccccc1Cl |  | inconclusive: 25.1 µM [inhibitor, single point]
COc1ccccc1-c1ccc(=O)n(CC(=O)NC2CCc3ccccc32)n1 (stereo not given) | inactive: 9.29% | 
CCc1cc(C(=O)NNC(=O)CCl)sc1C | inactive: 1.51% | 
CCC1=Nc2ccccc2-c2nnc(SC)nc2O1 | inactive: -4.62% | 
Cc1cc(C)c2[nH]c(=O)c(CN(Cc3ccco3)C(=O)C3CCCO3)cc2c1 (stereo not given) |  | inconclusive: 28.2 µM [inhibitor, partial curve]
c1ccc(-n2nnnc2-c2cnc(-c3cccnc3)nc2-c2cccs2)cc1 |  | inconclusive: 31.6 µM [inhibitor, partial curve]
CN(C)c1ccc(NC(=O)CN2CCC(N3CCCCC3)CC2)cc1 |  | active: 31.6 µM
CS(=O)(=O)c1nc(-c2ccc(F)cc2)cc(C(F)(F)F)n1 |  | inconclusive: 25.1 µM [inhibitor, single point]
COc1ccc(-c2cc(C(=O)NNC3=NCCC3)c3c(C)nn(-c4ccccc4)c3n2)cc1 | inactive: -11% | 
CC(Sc1nc(N2CCOCC2)c2c(c1C#N)CC(C)(C)OC2)C(=O)Nc1ccccc1 (stereo not given) |  | inconclusive: 35.5 µM [inhibitor, single point]
N=C(N)Sc1nc(N2CCCCC2)nc(N2CCCCC2)n1 | inactive: -2.94% | 
CN(C)CCN(Cc1cc2cc3c(cc2[nH]c1=O)OCCO3)C(=S)NCC1CCCO1 (stereo not given) |  | inconclusive: 28.2 µM [inhibitor, partial curve]
O=C1NN=COc2ccccc21 |  | inconclusive: 39.8 µM [inhibitor, single point]
COCCCNC(=O)c1c(N)n(-c2cccc(S(N)(=O)=O)c2)c2nc3ccccc3nc12 |  | inconclusive: 28.2 µM [inhibitor, partial curve]
CCOC(=O)c1ccccc1NC(=O)CN1C(=O)CCS(=O)(=O)c2ccccc21 |  | inconclusive: 39.8 µM [inhibitor, single point]
O=C(Nc1nc2ccc(Cl)cc2s1)c1ccco1 |  | inconclusive: 25.1 µM [inhibitor, partial curve]
